According to PubChem BioAssay AID504832 (National Center for Advancing Translational Sciences (NCATS), 2011):
The whole screen tested about 310,000 compounds, of which about 18,000 (5.8%) were called active. This list was built around the results that the source calls inconclusive (neither active nor inactive); the mix of calls is not that of the screen. The call rests on the fitted dose curve; in most records, active means well fitted inhibition curve with a large enough effect; inconclusive means small, poorly fitted or top-dose-only effect, or another doubt; inactive means no such curve, though single readings can be large or run the other way. Potencies of inconclusive entries are left out as doubtful fits.

Assay: Primary qHTS for delayed death inhibitors of the malarial parasite plastid, 48 hour incubation
Details: P. falciparum luciferase growth in erythrocytes; series mostly up to 28.7 µM; activity change, negative = inhibition: at the top concentration
Procedure, shortened: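 Luminescence readout; reporter = integrated firefly luciferase in P. falciparum. RBC culture at 2% hematocrit, 0.1% parasitemia final, 37 C/5% CO2; decreased signal taken as growth inhibition.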
On the % scale 0 is the no-effect control and ±100 the full control effect; potency means the concentration at half of the fitted maximal effect; tags describe the fitted curve by direction and shape.

| Structure (SMILES) | activity change, negative = inhibition | Potency |
| --- | --- | --- |
| CCn1c(CN2CCN(Cc3ccc(C)cc3)C(CCO)C2)nc2ccccc21 (stereo not drawn) | inactive: -16.9% | – |
| O=C(c1cccc(-c2ccc(O)cc2)c1)N1CCN(c2ccc(F)cc2)CC1 | – | inconclusive [inhibitor, single point] |
| CCOC(=O)Cc1ccc(NC(=O)c2cccc([N+](=O)[O-])c2)cc1 | inactive: 10.3% | – |
| COc1ccc(S(=O)(=O)N2c3cc(Cl)ccc3Oc3nc4ccccc4nc32)cc1 | inactive: 29.8% | – |
| Cc1cc(C)c2[nH]c(=O)c(CN(Cc3cccnc3)C(=S)NCCCN(C)C)cc2c1 | – | inconclusive [inhibitor, partial curve] |
| NC1=NC(=O)/C(=C/c2ccccc2OS(=O)(=O)c2ccccc2)S1 | – | active: 10.4 µM |
| CC(C)(C)c1ccc(O)c(N)c1 | – | inconclusive [inhibitor, partial curve, poor fit] |
| OC(COC(c1ccc(Cl)cc1)c1ccc(Cl)cc1)CN1CCCC1 (stereo not drawn) | – | inconclusive [inhibitor, partial curve, poor fit] |
| CC(NC(=O)COC(=O)CNC(=O)C1CCCCC1)c1ccccc1 (stereo not drawn) | inactive: -7.34% | – |
| CCOc1ccc(C(=O)Nc2c(C(=O)N3CCC(N4CCCCC4)CC3)oc3ccccc23)cc1 | – | inconclusive [inhibitor, single point] |
| O=C1C(=O)N(CCCN2CCOCC2)C(c2ccc(F)cc2)/C1=C(/O)c1ccccc1 (stereo not drawn) | inactive: 2.3% | – |
| Cc1cccc(C)c1NC(=S)Nc1ccc(Cl)c(Cl)c1 | – | inconclusive [inhibitor, single point] |
| CCOC(=O)N1CCN(C(=O)c2ccc3c(c2)N(Cc2cc(C)ccc2C)C(=O)c2ccccc2S3=O)CC1 (stereo not drawn) | – | inconclusive [inhibitor, full curve] |
| CCCCCN=CC1=C(O)CC(c2ccccc2)CC1=O (stereo not drawn) | inactive: -13.9% | – |
| O=C(COC(=O)CC1CC2CCC1C2)Nc1ccc(Cl)c(S(=O)(=O)N2CCOCC2)c1 (stereo not drawn) | – | inconclusive [inhibitor, partial curve, poor fit] |
| FC(F)(F)c1ccc(C2[C@H]3CN(Cc4ccc(-c5ccccc5)cc4)[C@H](c4ccccc4)C34CC2(c2ccccc2)C4)cc1 (stereo partly drawn) | – | inconclusive [inhibitor, single point] |
| COc1ccc(C2c3[nH]c4ccccc4c3CCN2CCCn2cccn2)cc1C (stereo not drawn) | – | inconclusive [inhibitor, single point] |
| COc1ccc(C2=NN(c3nc(-c4ccc(CNC(C)=O)cc4)cs3)C(c3ccco3)C2)cc1 (stereo not drawn) | – | active: 3.7 µM |
| CCc1nnc(NC(=O)C2CC(=O)N(CCc3ccc(F)cc3)C2)s1 (stereo not drawn) | inactive: 9.21% | – |
| COCc1cccc(NC(=O)Cc2cccc3ccccc23)c1 | inactive: 24.2% | – |
| CN(C(=O)CSc1nc(N)c2c3c(sc2n1)CSC(C)(C)C3)c1ccccc1 | – | inconclusive [inhibitor, single point] |
| Cc1ccc(C)c(N2CCN(CCCNC(=O)Cn3cccc3C(=O)c3ccccc3C)CC2)c1 | – | inconclusive [inhibitor, partial curve] |
| CCc1ccc(CNc2ccc(O)cc2)cc1 | – | active: 11.7 µM |

| Structure (SMILES) | activity change, negative = inhibition | Potency |
| --- | --- | --- |
| O=C(CCC(=O)N1CCSc2ccccc21)NCc1ccc(Cl)cc1 | – | inconclusive [inhibitor, full curve, poor fit] |
| Cc1cc(NC(=O)C(C)SCC(=O)Nc2cc(C(F)(F)F)ccc2N2CCCCC2)no1 (stereo not drawn) | – | inconclusive [inhibitor, partial curve] |
| C=CCn1cnc2scc(-c3ccc(CC)cc3)c2c1=O | – | inconclusive [inhibitor, single point] |
| CN(C)CCN1C(=O)c2oc3ccccc3c(=O)c2C1c1cccc(Br)c1 (stereo not drawn) | – | inconclusive [inhibitor, partial curve, poor fit] |
| COc1ccccc1C(=O)Nc1cccc2c1CCCC2 | inactive: -9.96% | – |
| CCCn1c(SCC(=O)NC(=O)NCc2ccco2)n[nH]c1=O | inactive: 17.7% | – |
| COc1ccccc1NC(=O)C(NC(=O)OC(C)(C)C)C(C)OCc1ccccc1 (stereo not drawn) | – | inconclusive [inhibitor, single point] |
| COc1ccc(Br)cc1CNC(=O)C1CCCN(S(=O)(=O)N2CC(C)CC(C)C2)C1 (stereo not drawn) | inactive: -26% | – |
| Clc1cccc(N=NN2CCOCC2)c1Cl | – | inconclusive [inhibitor, single point] |
| COC(=O)c1sc(SC)c(S(=O)(=O)C(C)C)c1N | – | inconclusive [inhibitor, partial curve, poor fit] |
| CCN(CC(=O)Nc1ccc(NC(C)=O)cc1)C(=O)c1cc(S(=O)(=O)N2CCCCCC2)ccc1OC | – | inconclusive [inhibitor, partial curve] |
| Cc1cccc(CSc2nn3c(=O)c(C)nnc3s2)c1 | – | active: 10.4 µM |
| COc1ccc(C(=O)C=CNNC(=O)c2ccc(Cl)cc2)cc1 | – | inconclusive [inhibitor, partial curve, poor fit] |
| COc1ccc(C)cc1NC(=O)c1ccc(NS(=O)(=O)c2cccs2)cc1 | – | inconclusive [inhibitor, partial curve, poor fit] |
| CCOc1cc(NC(=O)C2CC2)c(OCC)cc1NC(=O)c1cc(OC)c(OC)c(OC)c1 | inactive: -12.6% | – |
| O=C(COc1ccc(F)cc1)Nc1nnc(C2CCCCC2)s1 | – | inconclusive [inhibitor, full curve, poor fit] |
| COc1cccc(-n2c(CN3CCN(c4ccccn4)CC3)nc3ccc([N+](=O)[O-])cc3c2=O)c1 | – | inconclusive [inhibitor, single point] |
| C/C(=N\NC(=O)c1cccc(N/N=C(\C)c2cc(O)ccc2O)c1)c1cc(O)ccc1O | – | inconclusive [inhibitor, single point] |
| OCCCc1nc2ccccc2n1CCc1ccccc1 | – | inconclusive [inhibitor, single point] |
| CCCCCC(N)=O | – | inactive |
| CCCCCC(=O)Nc1ccc2oc(-c3cncc(Br)c3)nc2c1 | inactive: 28.5% | – |
| O=C(NCCCn1ccnc1)C(=O)NCC1OCCCN1S(=O)(=O)c1ccc(F)cc1 (stereo not drawn) | – | inconclusive [inhibitor, single point] |
| O=C(Nc1ccccc1)c1ccc[n+](Cc2ccc([N+](=O)[O-])cc2)c1 | inactive: -15.9% | – |

| Structure (SMILES) | activity change, negative = inhibition | Potency |
| --- | --- | --- |
| COc1ccccc1N(C(=O)c1snc(C(N)=O)c1N)C(C(=O)NCc1ccccc1)c1ccc(C)o1 (stereo not drawn) | – | inconclusive [inhibitor, partial curve] |
| O=C(NCCc1c[nH]c2ccccc12)/C(=C\c1cccnc1)NC(=O)c1ccccc1F | – | inconclusive [inhibitor, partial curve, poor fit] |
| O=C(c1cc2ccccc2o1)N1CCOCC1 | – | inconclusive [inhibitor, single point] |
| CCOC(=O)C1(Cc2cccc(F)c2)CCN(C(=O)c2ccoc2C)CC1 | – | active: 10.4 µM |
| COc1ccc(C(=O)N/C(=C\c2ccc([N+](=O)[O-])cc2)C(=O)NC(CCSC)C(=O)O)cc1 (stereo not drawn) | – | inconclusive [inhibitor, partial curve, poor fit] |
| O=C1C=C(NNC(=O)c2cccnc2)CC(c2ccco2)C1 (stereo not drawn) | inactive: 7.64% | – |
| Cc1onc(-c2c(F)cccc2Cl)c1C(=O)Nc1c(C)n(C)n(-c2ccccc2)c1=O | – | inconclusive [inhibitor, full curve, poor fit] |
| COc1cc2c(cc1OC)CN(C(=O)CSc1nc(C)cc(C)c1C#N)CC2 | – | inconclusive [inhibitor, partial curve, poor fit] |
| COc1cc(C(=O)NC(C)c2cccc3ccccc23)cc(OC)c1OC (stereo not drawn) | – | inconclusive [inhibitor, partial curve, poor fit] |
| Cc1ccc(NS(=O)(=O)c2cc(-c3n[nH]c(=O)c4ccccc34)ccc2C)cc1 | – | inconclusive [inhibitor, partial curve, poor fit] |
| CC1(C)CC(N2CCCC2)=CC(=[N+]2CCCCC2)C1 | – | active: 0.828 µM |
| CCOC(=O)c1ccc(Nc2c(OCC)c(=O)c2=O)cc1 | – | inconclusive [inhibitor, partial curve] |
| O=C(O)/C=C/C(=O)Nc1nccs1 | – | inconclusive [inhibitor, partial curve, poor fit] |
| CCn1c2ccccc2c2cc(NC(=O)Nc3ccc([N+](=O)[O-])cc3C)ccc21 | – | inconclusive [inhibitor, single point] |
| COc1cc(/C=N/NC(=O)CCN2CCN(Cc3ccccc3)CC2)cc(OC)c1OC | – | inconclusive [inhibitor, partial curve, poor fit] |
| COc1ccc(CCNC(=O)C2CCN(S(=O)(=O)c3ccc(OC)c(OC)c3)CC2)cc1 | – | inconclusive [inhibitor, partial curve, poor fit] |
| Cc1ccc(C(=O)N/C(=C/c2ccco2)C(=O)N2CCC(C)CC2)cc1 | – | inconclusive [inhibitor, partial curve, poor fit] |
| O=C(COc1nncc2ccccc12)Nc1ccc(Br)cc1F | – | inconclusive [inhibitor, single point] |
| COc1ccc(/C=N/Nc2ccccn2)c(OC)c1OC | inactive: 48.3% | – |
| Oc1cc2c(cc1CN1CCN(c3ccccc3F)CC1)OCO2 | – | active: 9.28 µM |
| CCC(=O)c1ccc(N2CCCCC2)c(F)c1 | inactive: 1.09% | – |
| COc1ccc(C)cc1NC(=O)c1cc(S(=O)(=O)N2CCCCC2)ccc1N1CCOCC1 | – | active: 11.7 µM |
